Results: paper PMC4336329 (PLoS ONE, 2015)
About 14,000 (4.5%) of roughly 310,000 compounds showed an effect of 50% or more. The effect is printed as a negative number. Some of the results follow.

Biological target: human ether-à-go-go-related gene (hERG) potassium channel (human, UniProt Q12809)
Assay: primary screen, population patch clamp on CHO cells stably expressing hERG
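Further: peak tail current of the secondary pulse compared with the same well before compound.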

Sequence of human ether-à-go-go-related gene (hERG) potassium channel (Q12809 whole entry, looked up): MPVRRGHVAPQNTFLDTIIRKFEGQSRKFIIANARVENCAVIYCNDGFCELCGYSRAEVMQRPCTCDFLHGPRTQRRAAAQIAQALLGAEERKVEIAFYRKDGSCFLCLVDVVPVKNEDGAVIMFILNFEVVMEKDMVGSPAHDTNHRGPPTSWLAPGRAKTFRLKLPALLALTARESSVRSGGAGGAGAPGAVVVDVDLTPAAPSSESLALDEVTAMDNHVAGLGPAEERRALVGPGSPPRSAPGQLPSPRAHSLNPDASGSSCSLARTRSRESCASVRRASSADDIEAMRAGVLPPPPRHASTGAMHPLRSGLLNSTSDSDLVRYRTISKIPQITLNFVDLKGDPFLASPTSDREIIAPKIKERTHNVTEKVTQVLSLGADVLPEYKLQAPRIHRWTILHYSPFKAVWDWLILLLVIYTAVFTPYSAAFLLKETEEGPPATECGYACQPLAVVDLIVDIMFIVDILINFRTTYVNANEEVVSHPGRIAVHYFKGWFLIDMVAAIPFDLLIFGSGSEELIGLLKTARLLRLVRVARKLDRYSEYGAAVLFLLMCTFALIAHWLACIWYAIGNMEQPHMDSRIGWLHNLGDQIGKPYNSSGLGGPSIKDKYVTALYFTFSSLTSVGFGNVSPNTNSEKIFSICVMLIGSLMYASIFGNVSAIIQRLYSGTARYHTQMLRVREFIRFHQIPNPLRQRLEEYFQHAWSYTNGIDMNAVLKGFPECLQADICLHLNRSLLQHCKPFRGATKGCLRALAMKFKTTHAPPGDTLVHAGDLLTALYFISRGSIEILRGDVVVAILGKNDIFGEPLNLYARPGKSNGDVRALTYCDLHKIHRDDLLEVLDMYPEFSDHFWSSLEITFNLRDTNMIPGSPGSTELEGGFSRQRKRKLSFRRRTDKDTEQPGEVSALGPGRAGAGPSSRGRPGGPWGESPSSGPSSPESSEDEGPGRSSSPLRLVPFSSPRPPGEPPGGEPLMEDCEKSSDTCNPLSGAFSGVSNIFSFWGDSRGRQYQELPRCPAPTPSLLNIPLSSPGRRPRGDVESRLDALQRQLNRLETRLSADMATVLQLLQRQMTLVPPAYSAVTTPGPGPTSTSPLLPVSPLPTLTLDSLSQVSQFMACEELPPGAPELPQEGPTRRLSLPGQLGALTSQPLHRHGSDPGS

SMILES	hERG current change (%, negative = inhibition) at 10uM [%]
O=C(CSc1nc2[nH]ncc2c(=O)[nH]1)NCc1ccc(F)cc1	16.7
Cn1c(N)c(C(=O)CSc2nc3ccccc3[nH]2)c(=O)n(C)c1=O	-2.34
O=C(C1CCC(=O)N(C2CCCC2)C1)N1CCN(c2ccc(Cl)cc2)CC1 (stereo not drawn)	-61
Cc1noc(C)c1COc1ccc(C(=O)NCCc2ccc(F)cc2)cc1	5.6
Cc1cccc(NC(=S)N2CCn3cccc3C2c2cccnc2)c1 (stereo not drawn)	-20.7
O=C(O)CSc1cc(NS(=O)(=O)c2ccc(Br)cc2)c2ccccc2c1O	20.3
CCN(CC)c1ccc(CNc2nc3ccccc3n2CCN2CCOCC2)cc1	-79.5
COc1ccc(-n2ccnc2SCC(=O)NCc2ccco2)c(OC)c1	-0.982
C[C@]12CC[C@@H]3c4ccc(O[C@@H]5O[C@H](C(=O)[O-])[C@@H](O)[C@H](O)[C@H]5O)cc4CC[C@H]3[C@@H]1C[C@@H](O)[C@@H]2O.[Na+]	2.21
CC(OC(=O)CC1CCCCC1)C(=O)Nc1ccc(F)cc1 (stereo not drawn)	-0.705
COc1cccc(CNC(=O)Cn2ccc([N+](=O)[O-])n2)c1	22.1
Cn1c(CCCCCN)nc2ccccc21	7.44
COc1cccc(CNC(=O)Cn2nc(C)c3c(C)n(-c4ccc(C)cc4)nc3c2=O)c1OC	15.6
Cc1c(CC(=O)O)c(=O)oc2c(C)c(OCc3ccc(F)cc3Cl)ccc12	17.8
CCCCCC(=O)Nc1cccc(S(=O)(=O)NC2=NCCC2)c1	11.6
COc1ccccc1CN1CCNC(=O)C1CC(=O)N(C)Cc1nc(C)cs1 (stereo not drawn)	17
CCC(=NCc1cccnc1)c1c(O)n(-c2ccccc2)c(=O)[nH]c1=O	-22
Cc1cccc(Nc2nnc(SCC(=O)c3ccc(O)cc3O)s2)c1	-18.4
CN1CCN(S(=O)(=O)c2ccc(NC(=O)c3ccccc3Cl)cc2)CC1	8.9

SMILES	hERG current change (%, negative = inhibition) at 10uM [%]
O=C(CNC(=O)c1ccccc1)Nc1ccc(Br)cc1C(=O)c1ccccc1	-8.15
COc1ccc(C(C)=O)cc1COC(=O)c1cc(C)nc2ccccc12	13.6
COc1ccccc1CCNC(=O)Cc1cccs1	-8.51
CCN(Cc1cc(=O)n2ccsc2n1)c1cccc2ccccc12	-3.5
O=C(CSc1ccc(F)cc1)Nc1ccccc1N1CCOCC1	-8.48
Cc1csc(NC(=O)C2CCCN(S(=O)(=O)c3cnc[nH]3)C2)n1 (stereo not drawn)	11.6
COC(=O)Nc1ccc(OCc2ccccc2)cc1	-2.46
CCNS(=O)(=O)c1ccc(NC(=O)c2ccccc2SCCOC)cc1	1.07
CC1CCCN(C(=O)CCl)C1 (stereo not drawn)	18.8
O=C(CN1CCN(c2ccc(O)cc2)CC1)N1CCc2ccccc21	10.5
CN(C)CCOCCSc1ccc(Cl)cc1.O=C(O)C(=O)O	-37.3
COc1cccc(OC)c1C(=O)Nc1ccccc1C(=O)N1CCCC1	-0.733
CN(CC(=O)Nc1cccc(F)c1)CC(=O)Nc1cccc(S(=O)(=O)N2CCCCCC2)c1	-18.9
CC/C(=N\Nc1ccccc1)c1c(O)n(-c2ccccc2)c(=O)[nH]c1=O	6.39
Nc1ccccc1Sc1ccc(C(=O)c2ccccc2C(=O)O)cc1[N+](=O)[O-]	16.7
Cc1ccccc1NC(=O)c1cc2ccccc2o1	5.93
CCOC(=O)c1[nH]c2c(c1C)C(=O)CC(c1ccc(N(C)C)cc1)C2 (stereo not drawn)	-23.5
COc1cc([N+](=O)[O-])cc(/C=N/NC(=O)c2ccc(C)nc2)c1O	20.5
CCN(CC)CCNCc1ccc(Br)cc1OCC(=O)NCc1ccccc1.Cl	-67.2

SMILES	hERG current change (%, negative = inhibition) at 10uM [%]
COc1ccc(-n2c(N)c(C(=O)NCc3cccnc3)sc2=S)cc1	9.81
COc1cc(O)c(C(CCN2CCCC(C)C2)c2cc(OC)c(OC)c(OC)c2)c(OC)c1 (stereo not drawn)	5.07
CCCCCn1c(=O)c(C(=O)Nc2cccc(C)c2)c(O)c2ccccc21	20.7
O=C(O)c1ccc(-c2ccccn2)s1	-1.12
CCOC(=O)CC1CCCCN1C(=O)CCCn1nnnc1CN1CCC(C)CC1 (stereo not drawn)	12.3
CCOC(=O)c1sc(NC(=O)CSc2nccn2C)nc1C	-9.46
Cc1ccc(Nc2cc(C)nn2-c2nc(C)cc(C)n2)cc1	6.03
Cc1ccc(SCCC(=O)NC(C(C)C)C(C)C)cc1	-7.68
Cc1ccc(CSC2=NCCN2C(=O)c2ccco2)cc1	-10.3
COCCCNC(=O)c1c(-c2ccccc2)noc1C	14.5
O=C(Nc1ccc(F)cc1F)Nc1ccccc1C(=O)NCCN1CCNC1=O	12.6
CCCCNS(=O)(=O)c1ccc(OC)c(Cl)c1Cl	-2.31
CC(C)CN(C(=O)c1nn(C)c(=O)c2ccccc12)c1nc2ccccc2s1	-1.91
CC(=O)[C@@H]1[C@@H]2C(=O)N(Cc3ccccc3)C(=O)[C@@H]2C2c3ccccc3C=CN21 (stereo partly drawn)	8.85
Nc1ncncc1-c1ccc2ccccc2c1	-7.48
Cc1ccc(N/C(CSC(N)=O)=N\S(=O)(=O)c2ccc(C)cc2)cc1	15.5
CC(=O)OC1OCCOC1NC(=S)Nc1cccc(C(F)(F)F)c1 (stereo not drawn)	17.5
NC(=O)CNC(=O)[C@@H]1CC2(CC(c3cccc([N+](=O)[O-])c3)=NO2)CN1C(=O)c1ccccc1 (stereo partly drawn)	7.77
CS(=O)(=O)N(CC(=O)N1CCCCCC1)c1cccc(Cl)c1Cl	5.89
